The whole screen tested about 350,000 compounds, of which about 9,900 (2.8%) were called active. The inconclusive results got no clear call from the source; some entries with a clear call stand among them for comparison. The call rests on the fitted dose curve; in most records, active means well fitted activation curve with a large enough effect; inconclusive means small, poorly fitted or top-dose-only effect; inactive means no such curve, though single readings can be large or run the other way. Potencies of inconclusive entries are left out as doubtful fits.
Test: A quantitative high throughput screen for small molecules that induce DNA re-replication in MCF 10a normal breast cells. Further: nearly all actives have a fitted effect of over 50% in size. On activity, positive = re-replication: % of control where 0% means no effect.
Conditions: MCF 10A DNA re-replication, Hoechst nuclear intensity, 48 h; activity, positive = re-replication: at 46.1 µM (top of the series)
Potency means the concentration at half of the fitted maximal effect; tags describe the fitted curve by direction and shape.

Row | SMILES | Potency | activity, positive = re-replication
1 | Cc1cc(OC(C)C(=O)NCc2cccnc2)c2c(C)c(Cc3ccccc3)c(=O)oc2c1 (centres undefined) | inconclusive [activator, partial curve, poor fit] | 
2 | Cc1[nH]c2c(C(=O)N3CCCC(CCC(=O)NCc4ccccc4F)C3)cccc2c1C (centres undefined) | inconclusive [activator, single point] | 
3 | O=C(NC(CSC(=O)c1ccccc1)C(=O)O)OCc1ccccc1 (centres undefined) |  | inactive: -1.6%
4 | O=C(CCCN1C(=O)c2ccccc2C1=O)N1CCc2ccccc2C1 |  | inactive: -0.319%
5 | CCc1ccc(NC(=O)C(=O)NCCOc2ccccc2Cl)cc1 |  | inactive: 13.9%
6 | Oc1cccc(/C=N/N2CCN(c3ccccn3)CC2)c1 |  | inactive: -0.559%
7 | COc1ccc(NC(=O)c2cc3nc(-c4ccccc4)cc(-c4ccccc4)n3n2)c(OC)c1 |  | inactive: -9.5%
8 | O=S(=O)(Nc1ccc2c(c1)nc1n2CCN(Cc2ccccc2)C1)c1ccc(Cl)cc1 | inconclusive [activator, single point] | 
9 | CC1(C)CC(NC(=O)c2coc(=O)c(Br)c2)CC(C)(C)N1 | active: 18.4 µM | 
10 | Cc1ccc(C)c(N2CCN(C(=O)c3ccc(NS(=O)(=O)c4c(C)noc4C)cc3)CC2)c1 | inconclusive [activator, full curve] | 
11 | CC(C(=O)OCC(=O)c1ccc([N+](=O)[O-])cc1)N1C(=O)C2C3CCC(C3)C2C1=O (centres undefined) | inconclusive [activator, single point] | 
12 | Cc1cc(C)c2cc(C#N)c(N3CCCN(S(=O)(=O)c4ccccc4)CC3)nc2c1 |  | inactive: 4.06%
13 | Cc1onc(-c2ccccc2)c1C(=O)N=C(N)c1ccc(Cl)cc1 | inconclusive [activator, full curve, poor fit] | 
14 | CCN1CCN(C(=O)c2c(-c3c(Cl)cccc3Cl)noc2C)CC1 |  | inactive: -21.8%
15 | CCOc1ccc2nc(N3C(=O)/C(=C/c4ccc(Cl)cc4)NC3=S)sc2c1 |  | inactive: -1.47%
16 | O=C1CCCN1CCC(=O)N1CCCC(Nc2ccc(F)c(F)c2)C1 (centres undefined) |  | inactive: -1.27%
17 | Cc1cc2c(nc1C)CCCN2C[C@@H](C)O/N=C1/[C@H]2CCn3c(=O)n(-c4ccccc4)c(=O)n3[C@H]2[C@H](O)[C@@H]2O[C@H]12 | inconclusive [activator, full curve, poor fit] | 
18 | CC1CC(C)CN(CCCNC(=O)c2ccc3c(c2)N(Cc2ccccc2)C(=O)c2ccccc2S3=O)C1 (centres undefined) | active: 11.6 µM | 
19 | C=CCN1[C@@H](Cc2ccccc2)COCCS1(=O)=O | inconclusive [activator, full curve, poor fit] | 
20 | Cc1cccc(NC(=O)c2ccc(S(=O)(=O)N3CCC(C)CC3)cc2)n1 | inconclusive [activator, full curve, poor fit] | 
21 | Cc1cc(C)c2c(N)c(C(=O)c3ccc(Cl)cc3Cl)sc2n1 | inconclusive [activator, partial curve] | 
22 | O=C(COc1cccnc1[N+](=O)[O-])c1ccc(Cl)s1 | inconclusive [activator, single point] | 

Row | SMILES | Potency | activity, positive = re-replication
23 | Cc1cccc(C)c1NC(=O)CN1N=NC2C(=O)N(c3cccc(Cl)c3)C(=O)C21 (centres undefined) | inconclusive [activator, partial curve, poor fit] | 
24 | Cc1ccc(CNC(=O)C(C(=O)NCc2ccc(C)o2)c2ncc(C(F)(F)F)cc2Cl)o1 |  | inactive: 0.409%
25 | Cc1ccc(C(=O)NNC(=O)CSc2nnc3c(n2)[nH]c2ccc(C)cc23)cc1 |  | inactive: -4.54%
26 | Cc1cccc(CSc2nnnn2-c2ccccc2)c1 | inconclusive [activator, partial curve] | 
27 | CC(C)=C1C2CCC1C1C(=O)N(c3nc(-c4ccccc4)c(C)s3)C(=O)C21 (centres undefined) | inconclusive [activator, single point] | 
28 | Cc1nc(NC(=S)NC(=O)c2ccccc2)sc1C |  | inactive: 1.48%
29 | O=C(c1cccs1)c1ccc(-c2cccs2)s1 | inconclusive [activator, single point] | 
30 | O=C(N/C(=C/c1ccccc1Cl)C(=O)N1CCCCC1)c1ccco1 |  | inactive: -0.448%
31 | Cc1cc(Nc2ccccc2)n(C(=O)c2ccc(Cl)cc2)n1 | inconclusive [activator, single point] | 
32 | O=C(O)c1ccc(COc2ccc3ccccc3c2/C=C2/NC(=O)N(Cc3ccc(F)cc3)C2=O)cc1 | active: 18.4 µM | 
33 | O=C(NCc1ccccc1F)C1CCCN(C(=O)Nc2ccccc2)C1 (centres undefined) | inconclusive [activator, single point] | 
34 | Cc1ccc(CS(=O)(=O)c2ccccc2-c2nnc(-c3ccc(Cl)cc3)o2)cc1 | inconclusive [activator, full curve] | 
35 | CC(C)C[C@H](NC(=O)c1nc[nH]c1C(=O)NC1CCN(C(=O)OC(C)(C)C)CC1)C(=O)OCc1ccccc1 | inconclusive [activator, partial curve, poor fit] | 
36 | COc1ccc(OC)c(Nc2nc(-c3ccc(O)c(O)c3)cs2)c1 | active: 8.2 µM | 
37 | CC(OC(=O)c1ccc(NS(=O)(=O)c2ccc3[nH]c(=O)[nH]c3c2)cc1)C(=O)Nc1ccc(Cl)cc1 (centres undefined) | inconclusive [activator, single point] | 
38 | CCCCCCCCCCCCOCCCN |  | inactive: -2.67%
39 | Cc1c(NC(=O)c2cc(-c3ccc(F)cc3)nc3ccccc23)c(=O)n(-c2ccccc2)n1C | inconclusive [activator, single point] | 
40 | CCCN(CC(=O)Nc1ccccc1C)C(=O)c1cc(=O)[nH]c2ccccc12 |  | inactive: 10.5%
41 | O=C(C[N+]1(CC#Cc2ccccc2)CCOCC1)c1ccc(Cl)cc1 | inconclusive [activator, single point] | 
42 | COc1ccc(-c2nc(NC(=O)Cn3ccc(C(F)(F)F)n3)sc2C)cc1 | inconclusive [activator, partial curve, poor fit] | 
43 | C=CCSc1nsc(NC(=O)Nc2ccc(F)cc2)n1 | inconclusive [activator, partial curve, poor fit] | 
44 | CC(C)S(=O)(=O)C1=NSC2=NC(=O)/C(=C\c3ccc(-c4ccccc4)o3)C(=N)N21 | active: 16.4 µM | 

From PubChem BioAssay AID624296 (National Center for Advancing Translational Sciences (NCATS), 2012)
